# Laboratory results published in the supplement of paper PMC8728848.
# The list shows a part of the results.
# B1: Blon2468mut (Bifidobacterium longum) (protein)
# chain: MTFIKQMMPRYVASMTAGIVAAAMAATCAFAPVANADAVSPTQETIQSTGRHFMVYYRAWRDVTMKGVNTDLPDDNWISMYDIPYGVDVVNIFSYVPSGQEEQAQPFYDKLKSDYAPYLHSRGIKLVRGIDYTGVAVNGFRTFMKEQNKTESEATEADYDAYAKQVIDKYMISVGLDGLDIDMQAHPNDADVKISDNVIRALSKHIGPKSAKPDTTMFLYDTNGSYLNPFKNVAECFDYVAYQQYGSSSDRTARAAADYQPYIGNEFVPGLTFPEEGDMNNRWYDATEPYEESHFYQVASYVREHNLGGMFVYALDRDGRNYDEDLRRIVPSNLLWTKTAIAESEGMALDTAKTAANHYLDRMSLRQVIDDNAASADKARDMVGKAANLYETNKAVLGGDYGEGFSNTYDPTLEAGLLGIDISVLQQQIDKSSEIIGADTAESDAKTALRMARDAAIDGLTGKIYTADQVSAWSQALKAALDATVPVPTPDSTDQNGNRDKVTNHKVQGQPKQLSATGISTDIIVAVGVTLAIAGVALSLSRKLS
# Tests used:
# Test in all cases: glycan array binding signal (z-score within array); higher = stronger binding
# Conditions in all cases: glycan notation: IUPAC condensed, linker removed
# [1] = biological target: Neu5Ac(a2-3)Gal(b1-3)[Fuc(a1-4)]GlcNAc(b1-3)Gal(b1-3)[Fuc(a1-4)]GlcNAc
# Method in brief: (§1)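 Negative Z-scores can be read as non-binding. The Z-score is calculated within each array and then averaged across arrays of one protein sequence at different concentrations or buffers and across linkers. Arrays, 3228 in all, were curated from the Consortium for Functional Glycomics database and kept only where the protein sequence was available.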
# [2] = biological target: Neu5Ac(a2-3)Gal(b1-3)[Fuc(a1-4)]GlcNAc(b1-3)Gal(b1-4)[Fuc(a1-3)]GlcNAc
# Method in brief: as §1
# [3] = biological target: Neu5Ac(a2-3)Gal(b1-3)[GlcNAc(b1-6)]GalNAc
# Method in brief: as §1
# [4] = biological target: Neu5Ac(a2-3)Gal(b1-3)[Neu5Ac(a2-6)]GalNAc
# Method in brief: as §1
# [5] = biological target: Neu5Ac(a2-3)Gal(b1-3)[Neu5Ac(a2-6)]GlcNAc(b1-3)[Fuc(a1-3)[Gal(b1-4)]GlcNAc(b1-6)]Gal(b1-4)Glc
# Method in brief: as §1
# [6] = biological target: Neu5Ac(a2-3)Gal(b1-3)]Neu5Ac(a2-3)Gal(b1-4)]GlcNAc
# Method in brief: as §1
# Neu5Ac(a2-3)Gal(b1-4)Glc = biological target: Neu5Ac(a2-3)Gal(b1-4)Glc
# Method in brief: as §1
# [7] = biological target: Neu5Ac(a2-3)Gal(b1-4)GlcNAc
# Method in brief: as §1
# [8] = biological target: Neu5Ac(a2-3)Gal(b1-4)GlcNAc(b1-2)Man
# Method in brief: as §1
# [9] = biological target: Neu5Ac(a2-3)Gal(b1-4)GlcNAc(b1-2)Man(a1-3)[GlcNAc(b1-4)][Neu5Ac(a2-3)Gal(b1-4)GlcNAc(b1-2)Man(a1-6)]Man(b1-4)GlcNAc(b1-4)GlcNAc
# Method in brief: as §1
# [10] = biological target: Neu5Ac(a2-3)Gal(b1-4)GlcNAc(b1-2)Man(a1-3)[Neu5Ac(a2-3)Gal(b1-4)GlcNAc(b1-2)Man(a1-6)]Man(b1-4)GlcNAc(b1-4)GlcNAc
# Method in brief: as §1
# [11] = biological target: Neu5Ac(a2-3)Gal(b1-4)GlcNAc(b1-2)Man(a1-3)[Neu5Ac(a2-3)Gal(b1-4)GlcNAc(b1-2)Man(a1-6)]Man(b1-4)GlcNAc(b1-4)[Fuc(a1-6)]GlcNAc
# Method in brief: as §1
# [12] = biological target: Neu5Ac(a2-3)Gal(b1-4)GlcNAc(b1-2)Man(a1-3)[Neu5Ac(a2-6)Gal(b1-4)GlcNAc(b1-2)Man(a1-6)]Man(b1-4)GlcNAc(b1-4)GlcNAc
# Method in brief: as §1
# [13] = biological target: Neu5Ac(a2-3)Gal(b1-4)GlcNAc(b1-2)[Neu5Ac(a2-3)Gal(b1-4)GlcNAc(b1-2)]Man(a1-6)[Neu5Ac(a2-3)Gal(b1-4)GlcNAc(b1-2)Man(a1-3)][GlcNAc(b1-4)]Man(b1-4)GlcNAc(b1-4)GlcNAc
# Method in brief: as §1
# [14] = biological target: Neu5Ac(a2-3)Gal(b1-4)GlcNAc(b1-2)[Neu5Ac(a2-3)Gal(b1-4)GlcNAc(b1-4)]Man(a1-3)[GlcNAc(b1-4)][Neu5Ac(a2-3)Gal(b1-4)GlcNAc(b1-2)[Neu5Ac(a2-3)Gal(b1-4)GlcNAc(b1-6)]Man(a1-6)]Man(b1-4)GlcNAc(b1-4)GlcNAc
# Method in brief: as §1
# [15] = biological target: Neu5Ac(a2-3)Gal(b1-4)GlcNAc(b1-2)[Neu5Ac(a2-3)Gal(b1-4)GlcNAc(b1-4)]Man(a1-3)[GlcNAc(b1-4)][Neu5Ac(a2-3)Gal(b1-4)GlcNAc(b1-4)Man(a1-6)]Man(b1-4)GlcNAc(b1-4)GlcNAc
# Method in brief: as §1
# [16] = biological target: Neu5Ac(a2-3)Gal(b1-4)GlcNAc(b1-2)[Neu5Ac(a2-3)Gal(b1-4)GlcNAc(b1-6)]Man(a1-6)[Neu5Ac(a2-3)Gal(b1-4)GlcNAc(b1-2)Man(a1-3)]Man(b1-4)GlcNAc(b1-4)GlcNAc
# Method in brief: as §1
# [17] = biological target: Neu5Ac(a2-3)Gal(b1-4)GlcNAc(b1-3)Gal
# Method in brief: as §1
# [18] = biological target: Neu5Ac(a2-3)Gal(b1-4)GlcNAc(b1-3)Gal(b1-3)GlcNAc
# Method in brief: as §1
# [19] = biological target: Neu5Ac(a2-3)Gal(b1-4)GlcNAc(b1-3)Gal(b1-4)GlcNAc
# Method in brief: as §1
# [20] = biological target: Neu5Ac(a2-3)Gal(b1-4)GlcNAc(b1-3)Gal(b1-4)GlcNAc(b1-2)Man(a1-3)[Neu5Ac(a2-3)Gal(b1-4)GlcNAc(b1-3)Gal(b1-4)GlcNAc(b1-2)Man(a1-6)]Man(b1-4)GlcNAc(b1-4)GlcNAc
# Method in brief: as §1
# [21] = biological target: Neu5Ac(a2-3)Gal(b1-4)GlcNAc(b1-3)Gal(b1-4)GlcNAc(b1-3)Gal(b1-4)GlcNAc
# Method in brief: as §1
# [22] = biological target: Neu5Ac(a2-3)Gal(b1-4)GlcNAc(b1-3)Gal(b1-4)GlcNAc(b1-3)Gal(b1-4)GlcNAc(b1-2)Man(a1-3)[Neu5Ac(a2-3)Gal(b1-4)GlcNAc(b1-3)Gal(b1-4)GlcNAc(b1-3)Gal(b1-4)GlcNAc(b1-2)Man(a1-6)]GalNAc
# Method in brief: as §1
# [23] = biological target: Neu5Ac(a2-3)Gal(b1-4)GlcNAc(b1-3)Gal(b1-4)GlcNAc(b1-3)GalNAc
# Method in brief: as §1
# [24] = biological target: Neu5Ac(a2-3)Gal(b1-4)GlcNAc(b1-3)Gal(b1-4)GlcNAc(b1-3)[Neu5Ac(a2-3)Gal(b1-4)GlcNAc(b1-3)Gal(b1-4)GlcNAc(b1-6)]GalNAc
# Method in brief: as §1
# [25] = biological target: Neu5Ac(a2-3)Gal(b1-4)GlcNAc(b1-3)Gal(b1-4)GlcNAc(b1-6)[Gal(b1-3)]GalNAc
# Method in brief: as §1
# [26] = biological target: Neu5Ac(a2-3)Gal(b1-4)GlcNAc(b1-3)Gal(b1-4)[Fuc(a1-3)]GlcNAc
# Method in brief: as §1
# [27] = biological target: Neu5Ac(a2-3)Gal(b1-4)GlcNAc(b1-3)GalNAc
# Method in brief: as §1
# [28] = biological target: Neu5Ac(a2-3)Gal(b1-4)GlcNAc(b1-3)[Neu5Ac(a2-3)Gal(b1-4)GlcNAc(b1-6)]GalNAc
# Method in brief: as §1
# [29] = biological target: Neu5Ac(a2-3)Gal(b1-4)GlcNAc(b1-6)GalNAc
# Method in brief: as §1
binder,measurement,setting,value
B1,glycan array binding signal (z-score),[1],-0.04
same,glycan array binding signal (z-score),[2],0.065
same,glycan array binding signal (z-score),[3],-0.069
same,glycan array binding signal (z-score),[4],-0.016
same,glycan array binding signal (z-score),[5],-0.071
same,glycan array binding signal (z-score),[6],-0.06
same,glycan array binding signal (z-score),Neu5Ac(a2-3)Gal(b1-4)Glc,-0.056
same,glycan array binding signal (z-score),[7],-0.062
same,glycan array binding signal (z-score),[8],-0.056
same,glycan array binding signal (z-score),[9],-0.063
same,glycan array binding signal (z-score),[10],-0.062
same,glycan array binding signal (z-score),[11],-0.086
same,glycan array binding signal (z-score),[12],-0.083
same,glycan array binding signal (z-score),[13],-0.033
same,glycan array binding signal (z-score),[14],-0.084
same,glycan array binding signal (z-score),[15],-0.047
same,glycan array binding signal (z-score),[16],-0.048
same,glycan array binding signal (z-score),[17],-0.065
same,glycan array binding signal (z-score),[18],-0.073
same,glycan array binding signal (z-score),[19],-0.072
same,glycan array binding signal (z-score),[20],-0.079
same,glycan array binding signal (z-score),[21],-0.05
same,glycan array binding signal (z-score),[22],-0.005
same,glycan array binding signal (z-score),[23],-0.088
same,glycan array binding signal (z-score),[24],-0.083
same,glycan array binding signal (z-score),[25],-0.044
same,glycan array binding signal (z-score),[26],-0.04
same,glycan array binding signal (z-score),[27],-0.065
same,glycan array binding signal (z-score),[28],-0.05
same,glycan array binding signal (z-score),[29],-0.066
